Drawing on PubChem BioAssay AID463173 (ICCB-Longwood Screening Facility, Harvard Medical School, 2010), this text covers survival for 55 compounds.

The whole screen tested about 52,000 compounds, of which about 1,700 (3.3%) were called active. Cut-off read from the data, not from the text of the source: active = survival mostly below about 52% (no sharp cut-off); inactive = mostly above about 56%. Some of the results follow.

This experiment relates to Wild type. As to the kind of experiment: growth inhibition of S. aureus wild type versus tarO mutant, primary screen, teichoic acid synthesis inhibitors, RN4220, OD600 (AID 463173). The conditions noted are these: S. aureus RN4220 wild type/DeltatarO growth, OD600, 18 h, active compounds read low, screened at 18.75 µg/mL (by protocol).
For the compound `N#Cc1ccccc1Cn1c(=O)n(CCCCC(=O)NCc2ccc3c(c2)OCO3)c(=O)c2ccccc21`, the survival was inactive: 113%.

Turning to `Cc1ccc(CNC(=O)c2nc(-c3ccc(Cl)cc3)n3c2CCCCC3)cc1`, the survival is inactive: 68%.

Regarding `Cc1ccccc1C(=O)Nc1nnc(S(=O)(=O)N(C)Cc2ccc(Cl)cc2)s1`, the survival was inactive: 99%.

Regarding `O=C(NCCSCc1ccccc1Cl)C1CCN(S(=O)(=O)Cc2ccccc2)CC1`, the survival was inactive: 86%.

As for `COc1ccc(OCC(=O)Nc2ccc(O)c(-c3nc4ccccc4s3)c2)cc1`, the survival is inactive: 60%.

Regarding `COc1ccc(-n2cccc2C=C(C#N)C#N)cc1`, the survival was inactive: 116%.

Take `COc1ccc(CC(=O)N2CC(=O)Nc3ccc(Br)cc3C2c2ccc(F)cc2)cc1` (stereo not given): the survival is inactive: 64%.

On to `Cc1ccc(CN(C(=O)COc2ccc(C(C)C)cc2)C2CCS(=O)(=O)C2)o1` (stereo not given), for which the survival was inactive: 95%.

`CCCn1c(=O)c2sccc2n2c(CCCC(=O)Nc3ccccc3OCC)nnc12`: the survival is inactive: 77%.

For the compound `Cc1cccc(NC(=O)c2sc3nc4c(cc3c2N)CN(Cc2ccccc2)CC4)c1`, the survival was inactive: 92%.

Consider `COc1ccccc1NC(=O)c1oc2ccccc2c1NC(=O)c1ccccc1C(F)(F)F`, for which the survival was inactive: 90%.

For `CN(C)CCC(=O)c1ccc2c(c1)OCO2`, the survival is inactive: 98%.

`Brc1cccc(Nc2nc3nonc3nc2NCc2ccco2)c1`: the survival was inactive: 34%.

Consider `CCOc1ccccc1NC(=O)C(C)Sc1nc(-c2ccccc2)c(C#N)c(=O)[nH]1` (stereo not given), for which the survival is inactive: 84%.

With `CCOc1ccc(/C=C/c2nc(C#N)c(NC(C)CC)o2)cc1` (stereo not given), the survival was inactive: 82%.

As to `CC(C)C(=O)N1CCC(CN=CC2=C(O)CC(C)(C)CC2=O)CC1`, the survival is inactive: 103%.

As to `CCc1cccc(NC(=O)c2cnc(SC)nc2-c2ccccc2)c1`, the survival was inactive: 91%.

Consider `Cc1nc2sc(C(=O)Nc3ccc(F)cc3)c(N)c2c(-c2ccc(Br)cc2)c1C(=O)Nc1ccc(Cl)cc1`, for which the survival was inactive: 88%.

With `Cc1ccc(C)c(Cn2c(=O)n(Cc3ccc4c(c3)OCO4)c(=O)c3oc4ccccc4c32)c1`, the survival is inactive: 89%.

As to `CCCCOc1ccc(C(=O)NCCc2sc(-c3cccc(F)c3)nc2C)cc1`, the survival was inactive: 64%.

In the case of `O=C(Nc1ccc(NC(=O)c2cccs2)cc1)c1cccc(Br)c1`, the survival is inactive: 120%.

With `Cc1cc2nc(-c3ccc(OCc4ccc(F)cc4)cc3)cc(C(F)(F)F)n2n1`, the survival is inactive: 59%.

Regarding `COC(=O)c1ccc(NC(=O)CC2C(=O)N(c3ccc(F)cc3)C(=O)N2Cc2ccc(OC)cc2)cc1` (stereo not given), the survival was inactive: 131%.

Take `COc1ccc(-c2cn3nc(N4CCC(C(=O)Nc5cccc(OC)c5)CC4)sc3n2)cc1`: the survival was inactive: 110%.

On to `COc1ccc(N2CCN(S(=O)(=O)c3ccc(OC)c(-c4noc(C)n4)c3)CC2)cc1`, for which the survival is inactive: 97%.

As for `O=C(Cn1ncc2c3ccccc3n(Cc3ccc(Cl)cc3)c2c1=O)NCc1cccs1`, the survival was inactive: 89%.

Take `CCOc1ccc(Sc2cc(C(=O)NC(C)CC)c3ccccc3n2)cc1` (stereo not given): the survival was inactive: 135%.

Regarding `CCc1ccc(NC(=O)CSc2nccn2-c2cccc(C)c2C)cc1`, the survival is inactive: 85%.

For `CCc1ccc(NC(=O)c2ccc(F)c(S(=O)(=O)N(C)C3CCCCC3)c2)cc1`, the survival was inactive: 71%.

Regarding `Cc1cc(NC(=O)CSc2nc3c([nH]c4ccccc43)c(=O)n2-c2ccccc2)no1`, the survival was inactive: 64%.

As for `O=c1cc(-c2ccc(F)cc2)nc(SCc2nc(-c3cccc(Cl)c3)no2)[nH]1`, the survival is inactive: 73%.

For the compound `O=C(C1CCCN(S(=O)(=O)c2ccc(Br)s2)C1)N1CCN(c2ccc(F)cc2)CC1` (stereo not given), the survival is inactive: 71%.

With `COc1ccc(NC(=O)CSc2nc3ccncc3[nH]2)c(OC)c1`, the survival was inactive: 75%.

As to `Cc1ccc(C2CC(=O)N(Cc3ccccc3)c3c2c(C)nn3-c2nc(C)cc(C)n2)cc1` (stereo not given), the survival was inactive: 82%.

Regarding `CC1CN(C(=O)N2CCC(C(=O)NCCC3=CCCCC3)CC2)c2cc(Cl)ccc2O1` (stereo not given), the survival was inactive: 86%.

`Cc1ccc2c(=O)cc(C(=O)Nc3sc4c(c3C(N)=O)CCCC4)oc2c1`: the survival was inactive: 85%.

For `Cc1ccc(Cl)cc1-n1ncc2c(NCCCn3ccnc3)ncnc21`, the survival was inactive: 72%.

Consider `O=C(C1CCN(S(=O)(=O)Cc2ccccc2)CC1)N1CCN(c2ccc(F)cc2)CC1`, for which the survival is inactive: 83%.

For the compound `Cc1ccc(C)n1-c1c(C(=O)NCCCN2CCN(c3ccc(F)cc3)CC2)sc2ncccc12`, the survival was inactive: 73%.

Turning to `Cc1ccc(C)c(CN2C(=O)C3(c4ccccc42)N(c2cccc(C(F)(F)F)c2)C(=O)CS3(=O)=O)c1` (stereo not given), the survival was inactive: 84%.

`COc1ccc(C2C(=O)N(C3CCCCC3)CC(=O)N2CCc2ccc(OC)c(OC)c2)cc1` (stereo not given): the survival is inactive: 76%.

With `COc1cc(NC(=O)c2nc3ccccc3nc2C)cc(OC)c1OC`, the survival was inactive: 71%.

Turning to `CCOC(=O)c1cc(C)n(CC2CCC(C(=O)Nc3ccc(OCC)cc3)CC2)c1C` (stereo not given), the survival was inactive: 82%.

For the compound `Cc1ccc2oc(-c3cc(NC(=O)c4ccc5c(c4)OCCO5)cc(C)c3O)nc2c1`, the survival is inactive: 79%.

In the case of `COc1ccc(NC(=O)CCn2nc(-c3ccccc3OC)c3c(C)cc(C)nc32)cc1`, the survival was inactive: 100%.

With `CCC(C(=O)N1CCN(c2ccccc2F)CC1)n1nc(C)c2sc3ccccc3c2c1=O` (stereo not given), the survival is inactive: 71%.

As to `COc1cc(CN(C(=O)c2cccc(Cl)c2)c2ccccn2)cc(OC)c1OC`, the survival is inactive: 81%.

As for `CC1=C(C(=O)OCC(C)C)C(c2ccc(OCc3ccccc3)cc2)N2C(=O)CCSC2=N1` (stereo not given), the survival was inactive: 82%.

Regarding `Cc1ccc(-n2nc(C(=O)Nc3ccc(Cl)cn3)c3c4ccccc4n(C)c3c2=O)cc1`, the survival was inactive: 127%.

Consider `Cc1ccccc1OCc1ccc(-c2nc(C#N)c(N3CCN(C)CC3)o2)o1`, for which the survival was inactive: 87%.

As for `Cc1ccc(Cl)cc1N1CCN(C(=O)c2cccn3c(=O)c4cc(Cl)ccc4nc23)CC1`, the survival is inactive: 71%.

On to `CCCc1nn2c(=O)cc(COc3ccc(/C=C(\C#N)C(=O)Nc4ccc(F)cc4)cc3)nc2s1`, for which the survival is inactive: 95%.

Regarding `CCN(CC)C(=O)Cn1c(SCCOc2ccc(Cl)cc2)nc2ccccc21`, the survival is inactive: 66%.

`COc1ccc(NC(=O)CSc2nc(-c3ccco3)cc(C(F)(F)F)n2)c(OC)c1`: the survival is inactive: 65%.

`CCCCN(C)C(=O)C1CCC(CNS(=O)(=O)c2ccc3c(c2)CC(C)N3C(C)=O)CC1` (stereo not given): the survival was inactive: 99%.
